Several values for one entry are separate records, joined by “and”; a condition that tells them apart may be missing. Equal values may be shown once. The inconclusive results got no clear call from the source; some entries with a clear call stand among them for comparison. For some assays here: Potencies of inconclusive entries are doubtful fits and often do not repeat. A structure can be active in one record and inactive in another. Activity calls are given as the source filed them. Unless noted, calls follow the shape of the dose curve; as a rule, active = well fitted curve in the direction sought with a large enough effect in the repeat runs; inconclusive = weak or mixed curves; inactive = no such curve, though single readings can be large; an effect the other way counts as inactive or inconclusive.
Columns and labels:
[1] = qHTS assay to identify small molecule antagonists of the estrogen related receptor (ERR) signaling pathway from Tox21 library - cell viability counter screen (AID 1224834); settings: ERR reporter cells viability, CellTiter-Fluor, 17.5 h; series mostly up to 92.4 µM; also: nearly all actives have a fitted effect of over 30% in size
Outline: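 Multiplexed viability counter screen in ERR cells: 17.5 h compound exposure at 37 C, CellTiter-Fluor added, 30 min at 37 C/5% CO2, fluorescence read.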

[2] = qHTS assay to identify small molecule agonists of the constitutive androstane receptor (CAR) signaling pathway - cell viability counter screen (AID 1224836); settings: HepG2-CYP2B6-hCAR viability, CellTiter-Fluor, 23 h, PK11195 added to every well; series mostly up to 92.4 µM; also: nearly all actives have a fitted effect of over 45% in size
Outline: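 Compound titrations (15 concentrations) went onto HepG2-CYP2B6-hCAR cells 4 h after seeding, alongside PK11195 at a final 0.75 uM; a 23 h, 37 C/5% CO2 incubation preceded CellTiter-Fluor viability measurement.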

[3] = qHTS assay to identify small molecule antagonists of the constitutive androstane receptor (CAR) signaling pathway - cell viability counter screen (AID 1224837); settings: HepG2-CYP2B6-hCAR viability, CellTiter-Fluor, 23 h, co-treated with 50 nM CITCO; series mostly up to 92.4 µM; also: nearly all actives have a fitted effect of over 45% in size
Outline: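 Read-out: CellTiter-Fluor fluorescence after 23 hr at 37 C/5% CO2. Cells: HepG2 double-stable for hCAR and CYP2B6-2.2kb. Compounds tested at 15 concentrations in the presence of CITCO, final concentration 50 nM.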

[4] = biological target: Nuclear receptor subfamily 1 group I member 3 (Homo sapiens) (UniProt Q14994); assay: qHTS assay to identify small molecule antagonists of the constitutive androstane receptor (CAR) signaling pathway (AID 1224838); settings: HepG2-CYP2B6-hCAR luciferase, CITCO-stimulated, 24 h; series mostly up to 92.4 µM;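 also: HepG2 cells stably expressing hCAR with CYP2B6 luciferase reporter stimulated by CITCO; nearly all actives have a fitted effect of over 40% in size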
UniProt Q14994, sequence (Q14994 whole entry, looked up): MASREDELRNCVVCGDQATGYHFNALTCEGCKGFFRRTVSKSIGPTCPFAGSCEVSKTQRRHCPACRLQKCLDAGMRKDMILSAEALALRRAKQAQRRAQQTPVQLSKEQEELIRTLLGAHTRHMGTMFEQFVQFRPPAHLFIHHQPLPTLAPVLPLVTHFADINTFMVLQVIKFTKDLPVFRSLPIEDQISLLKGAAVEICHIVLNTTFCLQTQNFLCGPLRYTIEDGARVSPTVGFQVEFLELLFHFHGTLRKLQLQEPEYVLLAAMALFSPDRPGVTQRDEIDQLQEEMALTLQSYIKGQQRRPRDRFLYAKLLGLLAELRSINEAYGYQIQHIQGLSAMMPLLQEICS
Outline: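 Read-out: ONE-Glo luciferase luminescence after 30 min at room temperature. HepG2-CYP2B6-hCAR double-stable cells, compounds in 15-point titration plus 50 nM CITCO final, 24 h at 37 C/5% CO2.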

[5] = qHTS assay to identify small molecule antagonists of the estrogen related receptor signaling pathway with the pleiotropic PPARgamma coactivator (PGC) from Tox21 10K library - cell viability counter screen (AID 1224840; active = well fitted cell-killing curve with a large enough effect in the repeat runs, not every such curve was filed as active; inconclusive = weak or mixed curves, or effect the other way; inactive = no such curve, though single readings can be large or run the other way; also: nearly all actives have a fitted effect of over 40% in size); settings: PGC/ERR reporter cells viability, CellTiter-Fluor, 17.5 h; series mostly up to 92.4 µM
Outline: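 Fluorescence read-out of CellTiter-Fluor viability reagent, added after cells had been exposed to compound in DMSO for 17.5 h at 37 C; 30 min development at 37 C/5% CO2. Cells: PGC/ERR line, 2,000/well.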

[6] = qHTS assay to identify small molecule agonists of the hypoxia (HIF-1) signaling pathway - cell viability counter screen (AID 1224844; calls by dose curve; also: nearly all actives have a fitted effect of over 50% in size); settings: HRE-bla ME-180 viability, CellTiter-Glo luminescence, 17 h; series mostly up to 76.8 µM
Outline: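 CellTiter-Glo luminescence read-out, 30 min RT, taken in the same wells as the beta-lactamase HRE reporter assay; HRE-bla ME-180 cells, 0.5% dialyzed FBS, 17 hr compound treatment at 37C, 5% CO2.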

[7] = qHTS assay to identify small molecule antagonists of the estrogen related receptor (ERR) signaling pathway from Tox21 library (AID 1224848); settings: ERR reporter cell line, luciferase antagonist mode, 18 h; series mostly up to 92.4 µM; also: nearly all actives have a fitted effect of over 50% in size
Outline: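 Tox21 10K compounds in DMSO tested for ERR pathway antagonism in NTP's ERR cell line; 18 h, 37 C exposure; ONE-Glo luminescence.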

[8] = qHTS assay to identify small molecule agonists of H2AX (AID 1224845; active = well fitted activation curve with a large enough effect in the signal ratio in the repeat runs, not every such curve was filed as active; inconclusive = weak or mixed curves; the % refers to the signal ratio); settings: CHO-K1 phospho-H2AX Ser139 HTRF, 3 h; activation (H2AX phosphorylation): at 154 µM (top of the series) unless noted
Outline: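 Wild-type CHO-K1 cells plated overnight, then exposed 3 hr at 37C to compounds at 15 concentrations (0.76% DMSO). Lysed, then HTRF anti-pH2AX(S139)-cryptate/anti-H2AX-d2 detection after 24 hr at room temperature; emissions 665 and 620 nm.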

[9] = qHTS assay to identify small molecule agonists of the hypoxia (HIF-1) signaling pathway (AID 1224846; active = well fitted activation curve with a large enough effect in the signal ratio in the repeat runs, not every such curve was filed as active; inconclusive = weak or mixed curves; the % refers to the signal ratio; as to activation: % is scaled to controls: 0 for no effect and ±100 for the full control effect); settings: HRE-bla ME-180 cells, beta-lactamase ratio, 17 h; activation: at 76.8 µM (top of the series) unless noted
Outline: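 Beta-lactamase FRET read-out (CCF4-AM substrate) from ME-180 cells carrying an HRE-driven bla reporter, after 17 hrs compound exposure at 37C/5% CO2. Cells were seeded at 2,000 per well in 0.5% dialyzed FBS medium and preincubated 5 hrs.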

[10] = qHTS RealTime-Glo MT Cell Viability Assay in HepG2 cells - 24 hour (AID 1224867); settings: RealTime-Glo luminescence; series mostly up to 76.8 µM; also: nearly all actives have a fitted effect of over 50% in size
Outline: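 HepG2 cells were seeded at 600 cells/well together with NanoLuc luciferase and a cell-permeant prosubstrate, preincubated 5 h at 37 C/5% CO2, then pin-dosed with compounds in DMSO. Nonlytic luminescence from viable cells was read at each time point.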

[11] = qHTS RealTime-Glo MT Cell Viability Assay in HEK293 cells - 32 hour (AID 1224868); settings: RealTime-Glo luminescence; series mostly up to 76.8 µM; also: nearly all actives have a fitted effect of over 50% in size
Outline: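 HEK293 cells were seeded at 600 cells/well together with NanoLuc luciferase and cell-permeant prosubstrate, preincubated 5 h at 37 C/5% CO2, then given compound in DMSO by pintool. Luminescence from viable-cell prosubstrate reduction was read repeatedly over 40 h.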

[12] = biological target: Nuclear receptor subfamily 1 group I member 3 (Homo sapiens) (UniProt Q14994); assay: qHTS assay to identify small molecule agonists of the constitutive androstane receptor (CAR) signaling pathway (AID 1224839); settings: HepG2 hCAR CYP2B6-luciferase, agonist mode, 24 h; series mostly up to 92.4 µM; also: nearly all actives have a fitted effect of over 15% in size
Outline: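 In this screen, CAR-driven CYP2B6 promoter activity is measured by luminescence in HepG2-CYP2B6-hCAR cells after 24 h with test compounds and 0.75 uM PK11195 (final concentration).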

[13] = qHTS assay to identify small molecule antagonists of the estrogen related receptor signaling pathway with the pleiotropic PPARgamma coactivator (PGC) from Tox21 10K library (AID 1224841; call rule not given here); settings: PGC/ERR reporter cell line, ONE-Glo luciferase, 18 h; series mostly up to 92.4 µM
Outline: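 Luminescence read-out (One-Glo luciferase reagent, 30 min at room temperature) from PGC/ERR cells exposed to DMSO-dissolved test compounds for 18 h at 37 C; cells, 2,000 per well, had been preincubated 6 h before compound transfer.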

[14] = biological target: Thyrotropin receptor (Homo sapiens) (UniProt P16473); assay: qHTS assay to identify small molecule agonists of the thyroid stimulating hormone receptor (TSHR) signaling pathway (AID 1224843; calls by dose curve; also: nearly all actives have a fitted effect of over 45% in size; as to activation: % is scaled to controls: 0 for no effect and ±100 for the full control effect); settings: TSHR-HEK293 cells, cAMP HTRF, agonist mode, 30 min
UniProt P16473, sequence (P16473 whole entry, looked up): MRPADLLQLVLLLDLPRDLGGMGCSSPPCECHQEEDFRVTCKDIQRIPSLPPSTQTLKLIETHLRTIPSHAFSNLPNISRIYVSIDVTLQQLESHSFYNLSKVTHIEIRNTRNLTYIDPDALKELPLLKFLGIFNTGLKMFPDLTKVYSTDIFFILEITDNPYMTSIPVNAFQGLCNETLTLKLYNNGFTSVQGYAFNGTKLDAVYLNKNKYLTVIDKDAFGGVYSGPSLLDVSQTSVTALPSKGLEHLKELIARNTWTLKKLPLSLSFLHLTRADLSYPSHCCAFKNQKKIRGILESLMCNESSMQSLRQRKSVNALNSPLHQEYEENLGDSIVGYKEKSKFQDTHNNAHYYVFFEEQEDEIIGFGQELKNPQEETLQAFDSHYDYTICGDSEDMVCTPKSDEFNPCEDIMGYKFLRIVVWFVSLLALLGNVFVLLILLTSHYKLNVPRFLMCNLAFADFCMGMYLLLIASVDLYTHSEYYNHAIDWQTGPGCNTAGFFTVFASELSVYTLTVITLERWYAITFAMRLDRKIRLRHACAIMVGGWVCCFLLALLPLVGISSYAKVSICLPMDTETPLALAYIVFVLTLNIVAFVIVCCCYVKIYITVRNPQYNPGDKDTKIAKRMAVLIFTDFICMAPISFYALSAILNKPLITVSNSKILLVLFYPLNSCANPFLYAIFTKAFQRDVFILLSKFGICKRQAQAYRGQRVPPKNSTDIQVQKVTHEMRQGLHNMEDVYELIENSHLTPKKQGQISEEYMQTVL
Outline: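 Using 15 concentrations per compound in triplicate, cAMP production was monitored in TSHR-HEK293 cells after 30 min compound incubation at RT; HTRF reagents followed, with fluorescence intensity recorded after 1 h.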

[15] = A CellTox Green Cytotoxicity Assay to monitor cytotoxicity in HEK293 cells - 0 hour (AID 1224869); settings: CellTox Green fluorescence; series mostly up to 76.8 µM; also: nearly all actives have a fitted effect of over 50% in size
Outline: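 Read-out: fluorescence of a cell-impermeant cyanine dye staining DNA of dead cells, proportional to cytotoxicity. HEK293, 600 cells/well with reagent, compound (23 nL DMSO) added after 5 h; reads at 0, 8, 16, 24, 32, 40 h.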

[16] = activation: at 92.4 µM (top of the series) unless noted
Potency is read from the fitted curve at half-maximal effect; tags tell the direction and shape of the fitted curve or compound fluorescence and quenching.

CNCC[C@H](Oc1cccc2ccccc12)c1cccs1
active: Potency [2] 21.1 µM | Potency [3] 26.6 µM | Potency [4] 29.8 µM
inconclusive: Potency [1] 33.5 µM [cytotoxic, single point] | Potency [5] 33.5 µM [cytotoxic, single point] | Potency [6] 23.9 µM [cytotoxic] | Potency [7] 33.5 µM [inhibitor, single point]

CCCC(=O)OC[C@@H](OC(=O)CCC)[C@@H](OC(=O)CCC)[C@H](Cn1c2nc(=O)[nH]c(=O)c-2nc2cc(C)c(C)cc21)OC(=O)CCC
active: Potency [4] 29.8 µM
inconclusive: Potency [1] 26.6 µM [rising, partial curve] | Potency [2] 15 µM [rising, partial curve] | Potency [3] 21.1 µM [rising, partial curve] | Potency [6] 26.8 µM [cytotoxic, partial curve, poor fit] | Potency [8] 55.2 µM [fluorescent] | Potency [9] 21.3 µM [rising, partial curve] | Potency [10] 15.1 µM [falling, partial curve, poor fit] | Potency [11] 16.9 µM [cytotoxic, partial curve, poor fit]

O=c1[nH]nc(-c2ccc([N+](=O)[O-])o2)o1
inconclusive: Potency [1] 68.6 µM [cytotoxic, single point] | Potency [2] 54.5 µM [cytotoxic, partial curve] | Potency [3] 54.5 µM [cytotoxic, partial curve] | Potency [12] 34.4 µM [activator, partial curve] | Potency [13] 27.3 µM [falling, partial curve] | activation [14, 16] 11.6% | Potency [8] 63.5 µM [falling, partial curve, poor fit] | Potency [7] 61.1 µM [inhibitor, single point]
inactive: Potency [9]

CNCc1cc(F)ccc1Oc1ccc(Cl)c(Cl)c1
inconclusive: Potency [1] 68.6 µM [cytotoxic, single point] | Potency [2] 61.1 µM [cytotoxic, partial curve] | Potency [6] 43.6 µM [cytotoxic, partial curve] | Potency [9] 54.9 µM
active: Potency [14, 16] 54.5 µM | Potency [7] 48.6 µM

CC1=NN(c2ccc(S(=O)(=O)O)cc2)C(=O)C1N=Nc1ccccc1 (stereo unspecified)
inconclusive: Potency [2] 54.5 µM [cytotoxic, partial curve] | Potency [3] 61.1 µM [cytotoxic, single point] | Potency [5] 54.5 µM [cytotoxic, partial curve] | Potency [8] 101 µM [falling, partial curve] | Potency [11] 43.6 µM [cytotoxic, partial curve]
active: Potency [1] 54.5 µM

O=C(N/N=C/c1ccc([N+](=O)[O-])o1)c1ccc(O)cc1
active: Potency [1] 13.3 µM | Potency [2] 9.44 µM | Potency [3] 8.41 µM | Potency [4] 8.41 µM
inconclusive: activation [14, 16] 10.5% [at 42.5 µM] | Potency [8] 55.2 µM | Potency [10] 26.8 µM [falling, single point] | Potency [11] 15.1 µM [cytotoxic, partial curve, poor fit]

Nc1ccc2cc3ccc(N)cc3nc2c1
24.5 µM (active) and inactive: Potency [6]
inconclusive: Potency [1] 30.6 µM [rising, partial curve] and 23.7 µM [rising, partial curve] | Potency [2] 54.5 µM [rising, partial curve] and 26.6 µM [rising, partial curve] | Potency [3] 54.5 µM [rising, partial curve] and 26.6 µM [rising, partial curve] | activation ([14]; at 42.5 µM (top of the series)) -1.38% | activation ([14]; at 92.4 µM (top of the series)) -18.2% | Potency [8] 63.5 µM [partial curve] and 43.8 µM [partial curve] | Potency [9] 38.9 µM [falling, partial curve] | activation [9] 6.66% [at 35.5 µM] | Potency [10] 24.5 µM [falling, partial curve] and 9.52 µM [falling, partial curve]
active: Potency [15] 38.9 µM and 21.3 µM
